Measurements from the supplement of paper PMC4967469.

Columns and labels:
Assay in all cases: Viability of human cancer cell lines after 72 h of drug (GDSC screen)
[1] = compound: COc1ccc(-c2cc3nccn3c(Nc3ncccc3C(N)=O)n2)cc1OC [BAY 61-3606]; details: top dose 8 µM; top dose inferred
Procedure: (§1)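 Human cancer cell lines in 384-well plates, medium with 10% serum, drug for 72 h over a 256-fold dose range (nine 2-fold or five 4-fold steps up to the top dose). Adherent lines were fixed and stained with the nucleic acid dye Syto60, suspension lines read with resazurin; signal relative to control wells, capped at 0 and 100%. One two-parameter sigmoid per drug and line, fitted in a mixed model over all curves with the slope shared within a line.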

[2] = compound: C=CC(=O)N1CCc2ccc(-n3c(=O)ccc4cnc5ccc(-c6cnn(C)c6)cc5c43)cc21 [QL-XII-47]; details: top dose 10.24 µM; top dose inferred
Procedure: as §1

[3] = compound: O=C1/C(=C/c2cccs2)CC/C1=C\c1cccs1 [CCT007093]; details: top dose 6.6 µM; top dose inferred
Procedure: as §1

[4] = compound: CCN1CCC(n2cc(CNc3cc(Cl)c4ncc(C#N)c(Nc5ccc(F)c(Cl)c5)c4c3)nn2)CC1 [KIN001-266]; details: top dose 20 µM; top dose inferred
Procedure: as §1

Row | Cell Line | AUC [1] | pIC50 [1] | AUC [2] | pIC50 [2] | AUC [3] | pIC50 [3] | AUC [4] | pIC50 [4]
1 | NCI-H647 (non-small cell lung carcinoma, adherent) | 0.88 | < 5.10 | 0.457 | 6.31 | 0.968 | < 5.18 | 0.845 | 4.81
2 | NCI-H650 (lung adenocarcinoma, adherent) | 0.903 | < 5.10 | 0.654 | 5.75 | 0.982 | < 5.18 | 0.897 | < 4.70
3 | NCI-H661 (large cell lung carcinoma, adherent) | 0.871 | < 5.10 | 0.805 | 5.19 | 0.887 | < 5.18 | 0.846 | 4.71
4 | NCI-H720 (lung carcinoid, suspension) | 0.992 | < 5.10 | 0.992 | < 4.99 | 0.992 | < 5.18 | 0.963 | < 4.70
5 | NCI-H727 (lung carcinoid, adherent) | 0.802 | 5.12 | 0.906 | < 4.99 | 0.951 | < 5.18 | 0.871 | < 4.70
6 | NCI-H747 (large intestine, adherent) | 0.884 | < 5.10 | 0.413 | 6.45 | 0.976 | < 5.18 | 0.802 | 4.90
7 | NCI-H838 (lung adenocarcinoma, adherent) | 0.954 | < 5.10 | 0.975 | < 4.99 | 0.972 | < 5.18 | 0.937 | < 4.70
8 | NCI-H841 (small cell lung carcinoma, adherent) | 0.988 | < 5.10 | 0.621 | 5.86 | 0.988 | < 5.18 | 0.959 | < 4.70
9 | NCI-H847 (small cell lung carcinoma, adherent) | 0.708 | 5.77 | 0.332 | 6.62 | 0.993 | < 5.18 | 0.837 | 5.00
10 | NCI-H1048 (small cell lung carcinoma, adherent) | 0.814 | 5.42 | 0.731 | 5.57 | 0.967 | < 5.18 | 0.858 | 4.86
11 | NCI-H1092 (small cell lung carcinoma, suspension) | 0.882 | < 5.10 | 0.584 | 5.96 | 0.989 | < 5.18 | 0.921 | < 4.70
12 | NCI-H1155 (large cell lung carcinoma, suspension) | 0.96 | < 5.10 | 0.55 | 6.07 | 0.992 | < 5.18 | 0.896 | 4.77
13 | NCI-H1299 (large cell lung carcinoma, adherent) | 0.856 | < 5.10 | 0.877 | < 4.99 | 0.976 | < 5.18 | 0.941 | < 4.70
14 | NCI-H1304 (small cell lung carcinoma, suspension) | 0.85 | 5.17 | 0.899 | < 4.99 | 0.985 | < 5.18 | 0.934 | < 4.70
15 | NCI-H1355 (lung adenocarcinoma, adherent) | 0.751 | 5.43 | 0.849 | < 4.99 | 0.953 | < 5.18 | 0.962 | < 4.70
16 | NCI-H1395 (lung adenocarcinoma, adherent) | 0.954 | < 5.10 | 0.893 | < 4.99 | 0.918 | < 5.18 | 0.865 | < 4.70
17 | NCI-H1417 (small cell lung carcinoma, suspension) | 0.934 | < 5.10 | 0.816 | 5.15 | 0.973 | < 5.18 | 0.866 | < 4.70
18 | NCI-H1435 (lung adenocarcinoma, semi-adherent) | 0.983 | < 5.10 | 0.987 | < 4.99 | 0.992 | < 5.18 | 0.929 | < 4.70
19 | NCI-H1436 (small cell lung carcinoma, suspension) | 0.931 | < 5.10 | 0.775 | 5.33 | 0.985 | < 5.18 | 0.653 | 5.45
20 | NCI-H1437 (lung adenocarcinoma, adherent) | 0.724 | 5.65 | 0.577 | 5.98 | 0.903 | < 5.18 | 0.882 | < 4.70
21 | NCI-H1563 (lung adenocarcinoma, adherent) | 0.937 | < 5.10 | 0.559 | 6.02 | 0.983 | < 5.18 | 0.925 | < 4.70
22 | NCI-H1568 (lung adenocarcinoma, adherent) | 0.778 | 5.39 | 0.837 | 5.02 | 0.939 | < 5.18 | 0.969 | < 4.70
23 | NCI-H1573 (lung adenocarcinoma, adherent) | 0.949 | < 5.10 | 0.968 | < 4.99 | 0.991 | < 5.18 | 0.977 | < 4.70
24 | NCI-H1581 (large cell lung carcinoma, semi-adherent) | 0.927 | < 5.10 | 0.833 | 5.23 | 0.984 | < 5.18 | 0.932 | < 4.70
25 | NCI-H1623 (lung adenocarcinoma, adherent) | 0.978 | < 5.10 | 0.944 | < 4.99 | 0.937 | < 5.18 | 0.921 | < 4.70
26 | NCI-H1648 (lung adenocarcinoma, adherent) | 0.828 | 5.27 | 0.773 | 5.37 | 0.935 | < 5.18 | 0.865 | 4.71
27 | NCI-H1651 (lung adenocarcinoma, adherent) | 0.806 | 5.35 | 0.987 | < 4.99 | 0.927 | < 5.18 | 0.976 | < 4.70
28 | NCI-H1666 (lung adenocarcinoma, semi-adherent) | 0.961 | < 5.10 | 0.85 | 5.05 | 0.987 | < 5.18 | 0.864 | < 4.70

Row | Cell Line | AUC [1] | pIC50 [1] | AUC [2] | pIC50 [2] | AUC [3] | pIC50 [3] | AUC [4] | pIC50 [4]
29 | NCI-H1688 (small cell lung carcinoma, adherent) | 0.904 | < 5.10 | 0.778 | 5.34 | 0.987 | < 5.18 | 0.85 | 4.75
30 | NCI-H1693 (lung adenocarcinoma, adherent) | 0.898 | < 5.10 | 0.92 | < 4.99 | 0.964 | < 5.18 | 0.949 | < 4.70
31 | NCI-H1694 (small cell lung carcinoma, suspension) | 0.929 | < 5.10 | 0.246 | 6.92 | 0.989 | < 5.18 | 0.899 | < 4.70
32 | NCI-H1703 (lung adenocarcinoma, adherent) | 0.963 | < 5.10 | 0.75 | 5.40 | 0.981 | < 5.18 | 0.973 | < 4.70
33 | NCI-H1734 (lung adenocarcinoma, adherent) | 0.643 | 5.89 | 0.773 | 5.36 | 0.985 | < 5.18 | 0.881 | < 4.70
34 | NCI-H1755 (lung adenocarcinoma, adherent) | 0.898 | < 5.10 | 0.892 | < 4.99 | 0.919 | < 5.18 | 0.603 | 5.60
35 | NCI-H1770 (non-small cell lung carcinoma, suspension) | 0.797 | 5.49 | 0.938 | < 4.99 | 0.989 | < 5.18 | 0.986 | < 4.70
36 | NCI-H1781 (lung adenocarcinoma, adherent) | 0.959 | < 5.10 | 0.989 | < 4.99 | 0.968 | < 5.18 | 0.94 | < 4.70
37 | NCI-H1792 (lung adenocarcinoma, adherent) | 0.957 | < 5.10 | 0.897 | < 4.99 | 0.988 | < 5.18 | 0.988 | < 4.70
38 | NCI-H1793 (lung adenocarcinoma, adherent) | 0.981 | < 5.10 | 0.928 | < 4.99 | 0.967 | < 5.18 | 0.962 | < 4.70
39 | NCI-H1836 (small cell lung carcinoma, suspension) | 0.934 | < 5.10 | 0.957 | < 4.99 | 0.985 | < 5.18 | 0.981 | < 4.70
40 | NCI-H1869 (lung squamous cell carcinoma, adherent) | 0.876 | < 5.10 | 0.887 | < 4.99 | 0.985 | < 5.18 | 0.904 | < 4.70
41 | NCI-H1876 (small cell lung carcinoma, adherent) | 0.928 | < 5.10 | 0.85 | 5.10 | 0.987 | < 5.18 | 0.985 | < 4.70
42 | NCI-H1915 (large cell lung carcinoma, adherent) | 0.821 | 5.32 | 0.875 | < 4.99 | 0.987 | < 5.18 | 0.809 | 4.97
43 | NCI-H1944 (lung adenocarcinoma, adherent) | 0.671 | 5.81 | 0.576 | 5.98 | 0.978 | < 5.18 | 0.849 | 4.78
44 | NCI-H1975 (lung adenocarcinoma, adherent) | 0.592 | 6.03 | 0.776 | 5.33 | 0.983 | < 5.18 | 0.911 | < 4.70
45 | NCI-H1993 (lung adenocarcinoma, adherent) | 0.944 | < 5.10 | 0.706 | 5.53 | 0.95 | < 5.18 | 0.963 | < 4.70
46 | NCI-H2009 (lung adenocarcinoma, adherent) | 0.828 | 5.27 | 0.971 | < 4.99 | 0.981 | < 5.18 | 0.978 | < 4.70
47 | NCI-H2023 (lung adenocarcinoma, adherent) | 0.981 | < 5.10 | 0.943 | < 4.99 | 0.959 | < 5.18 | 0.926 | < 4.70
48 | NCI-H2029 (small cell lung carcinoma, adherent) | 0.972 | < 5.10 | 0.748 | 5.52 | 0.991 | < 5.18 | 0.988 | < 4.70
49 | NCI-H2030 (lung adenocarcinoma, adherent) | 0.747 | 5.54 | 0.673 | 5.68 | 0.981 | < 5.18 | 0.816 | 4.88
50 | NCI-H2052 (mesothelioma, adherent) | 0.84 | 5.10 | 0.914 | < 4.99 | 0.943 | < 5.18 | 0.975 | < 4.70
51 | NCI-H2081 (small cell lung carcinoma, suspension) | 0.919 | < 5.10 | 0.439 | 6.37 | 0.988 | < 5.18 | 0.888 | < 4.70
52 | NCI-H2085 (lung adenocarcinoma, adherent) | 0.88 | < 5.10 | 0.572 | 5.99 | 0.985 | < 5.18 | 0.854 | 4.75
53 | NCI-H2087 (lung adenocarcinoma, semi-adherent) | 0.748 | 5.56 | 0.354 | 6.61 | 0.983 | < 5.18 | 0.859 | 4.73
54 | NCI-H2110 (non-small cell lung carcinoma, adherent) | 0.885 | < 5.10 | 0.716 | 5.58 | 0.983 | < 5.18 | 0.633 | 5.53
55 | NCI-H2122 (lung adenocarcinoma, adherent) | 0.667 | 5.85 | 0.966 | < 4.99 | 0.989 | < 5.18 | 0.923 | < 4.70

pIC50: −log10 of the molar value. By IC50 is meant the dose at which the fit gives 50% viability; fits outside the tested doses are given as limits. For AUC the same curve is integrated over the 256-fold range of doses and scaled to a fraction: 1 means no effect, lower means more sensitive. An inferred top dose comes from the curve model; the source does not state it.
